According to the supplement of paper PMC9046079:
Where a name gives a salt, the structure may show the parent alone. ± gives the standard deviation of the averaged measurements. The list shows a part of the results.

Tested on: murine small intestinal organoids (ENR+CD Paneth differentiation)
Experiment: carbachol-stimulated secreted lysozyme activity relative to plate median (log10 fold change); higher = more Paneth cell lysozyme secretion
Settings: 0.08 µM; 6 d; carbachol 10 µM

SMILES	carbachol-stimulated secreted lysozyme activity (log10)
CC(NC(=O)C(O)c1cc(F)cc(F)c1)C(=O)NC1C(=O)N(C)c2ccccc2-c2ccccc21 (centres undefined)	0.102 ± 0.16
O=C(NCc1cccc(O)c1)Nc1nc(-c2ccncc2)cs1	-0.0377 ± 0.1
COc1cc2nc(N3CCN(C(=O)C4COc5ccccc5O4)CC3)nc(N)c2cc1OC (centres undefined) [Doxazosin Mesylate]	0.123 ± 0.093
CC(C)Oc1ccc(-c2cnc3c(-c4ccnc5ccccc45)cnn3c2)cc1	0.127 ± 0.046
CCc1nc(N)nc(N)c1-c1ccc(Cl)cc1 [Pyrimethamine]	-0.159 ± 0.33
CS(=O)(=O)N1CCN(Cc2cc3nc(-c4cccc5[nH]ncc45)nc(N4CCOCC4)c3s2)CC1	0.00985 ± 0.086
Cc1ccc(S(=O)(=O)n2c(N)nc3ccccc32)cc1 [ML130 (Nodinitib-1)]	-0.0332 ± 0.059
C=CC(=O)Nc1cccc(Nc2nc(Nc3ccc(OCCOC)cc3)ncc2F)c1	0.259 ± 0.069
CC(C)C[C@H](NC(=O)[C@H](Cc1ccccc1)NC(=O)c1cnccn1)B(O)O [Bortezomib (PS-341)]	-0.299 ± 0.048
CC(C)(C)c1cc(NC(=O)Nc2ccc(-c3cn4c(n3)sc3cc(OCCN5CCOCC5)ccc34)cc2)no1 [Quizartinib (AC220)]	-0.00355 ± 0.25
O=C(/C=C/n1cnc(-c2cc(C(F)(F)F)cc(C(F)(F)F)c2)n1)N1CC(F)(F)C1	0.172 ± 0.068
Cn1cc(/C=C2\C(=O)Nc3cccnc32)c2ccccc21	0.0397 ± 0.066
N#CC1(c2ccc(NC(=O)c3cccnc3NCc3ccncc3)cc2)CCCC1 [Apatinib]	0.147 ± 0.13
NC(=O)c1cccc(-c2cccc(OC(=O)NC3CCCCC3)c2)c1	0.0157 ± 0.082
